Reference: PubChem BioAssay AID1345082 (National Center for Advancing Translational Sciences (NCATS), 2018)
Out of some 94,000 compounds screened, about 4,000 (4.3%) were called active. This list was built around the results that the source calls inconclusive (neither active nor inactive); the mix of calls is not that of the screen. Calls follow the shape of the dose curve; as a rule, active = well fitted inhibition curve with a large enough effect; inconclusive = small, poorly fitted or top-dose-only effect; inactive = no such curve, though single readings can be large or run the other way. Potencies beside an inconclusive call are fits to weak or partial responses and may not hold up.

assay: Cytotoxic Profiling in NIH 3T3 Cell Line of Diverse Libraries Using Quantitative High-Throughput Screening; details: NIH 3T3 viability, CellTiter-Glo ATP luminescence, 48-72 h; series mostly up to 96.7 µM; activity change, negative = cytotoxicity: at the top concentration; also: nearly all actives have a fitted effect of over 55% in size
Summary of the method: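 Cytotoxicity is measured as loss of cellular ATP: NIH 3T3 cells (400/well) are exposed to compound for 48 or 72 hr at 37 °C, then CellTiter-Glo luminescence is imaged after 10 min at room temperature.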
% is scaled to controls: 0 for no effect and ±100 for the full control effect; potency is read from the fitted curve at half-maximal effect; tags tell the direction and shape of the fitted curve.

SMILES	Potency	activity change, negative = cytotoxicity	outcome
Cn1cc(-c2cnc3[nH]cc(CC(=O)N4CCN(Cc5ccccc5)CC4)c3c2)cn1	active: 39.8 µM	–	–
Cc1ccc(C(=O)NC[C@H]2C[C@@H]3CCN2C[C@@H]3c2cc(-c3ccccc3)nn2C)cc1	inconclusive: 63.1 µM [inhibitor, partial curve, poor fit]	–	–
O=c1ccc(-c2cccs2)c2n1C[C@H]1C[C@@H]2CN(S(=O)(=O)c2cccs2)C1	–	inactive: -26.3% [at 174 µM]	–
COc1cc2c(cc1OCC1CC1)NC(=O)C21CCN(c2ncc(C(C)C)cn2)CC1	active: 79.4 µM	–	–
COc1cc2c(cc1Oc1ccccc1)NC(=O)C21CCN(CC2CC2)CC1	active: 44.7 µM	–	–
COc1cccc(Nc2cc3c(cn2)CN(C)CCN3)c1	inconclusive: 112 µM [inhibitor, partial curve]	–	–
O=C1Nc2ccccc2CC12CN(CC1CC1)C2	–	inactive: -2.52% [at 174 µM]	–
CC(=O)c1ccc(NC(=O)OC[C@H]2C[C@@H]3CCN2C[C@@H]3c2cc(C3CCCC3)nc(-c3ccncc3)n2)cc1	active: 22.4 µM	–	–
COC[C@H]1CCCN1C[C@H]1CN2CC[C@H]1C[C@@H]2CNC(=O)c1ccc(N(C)C)cc1	active: 70.8 µM	–	–
COc1c(C)cnc(CN2CCC3(C2)C(=O)N(C)C(=O)N3C)c1C (centres undefined)	–	inactive: -22.2%	–
Cc1ccc(C(=O)NC[C@H]2C[C@@H]3CCN2C[C@@H]3c2cc(-c3ccc(F)cc3)nn2C)cc1	active: 25.1 µM	–	–
Cc1noc(C)c1CC(=O)N1[C@H]2CC[C@@H]1c1cnc(-c3ccc(F)cc3)nc1C2	inconclusive: 31.6 µM [inhibitor, partial curve]	–	–
Cc1ccc(C(=O)NC[C@H]2C[C@@H]3CCN2C[C@@H]3c2cc(C3CCCCC3)nn2C)cc1	active: 35.5 µM	–	–
CCNC(=O)Nc1ccc(OCC(=O)N2CCN(CC(C)C)CC2)nc1	–	–	inactive
CCCS(=O)(=O)N1C[C@@H]2C[C@H](C1)c1c(-c3ccc(Cl)cc3)ccc(=O)n1C2	–	inactive: 2.9% [at 174 µM]	–
C=C[C@H]1CN2CC[C@H]1C[C@@H]2CNC(=O)c1ccc(N(C)C)cc1	–	inactive: -21.4% [at 174 µM]	–
C=CCNC(=O)NC[C@H]1C[C@@H]2CCN1C[C@@H]2c1cc(C(CC)CC)nc(-c2ccncc2)n1	inconclusive: 79.4 µM [inhibitor, partial curve, poor fit]	–	–
CCOC(=O)[C@H]1CN([S+](C)(=O)[O-])[C@]2(C)C(=O)Nc3ccccc3[C@H]12	inconclusive: 44.7 µM [inhibitor, partial curve, poor fit]	–	–
COCC(=O)NC[C@H]1C[C@@H]2CCN1C[C@@H]2c1cc(-c2ccc3ccccc3c2)nn1C	active: 35.5 µM	–	–
COc1ccc(OC)c(S(=O)(=O)N2[C@H]3CC[C@@H]2c2cnc(C)nc2C3)c1	–	inactive: -12.7%	–
COc1cc2c(cc1Oc1cccc(N(C)C)c1)NC(=O)C21CCN(c2ncccn2)CC1	inconclusive: 50.1 µM [inhibitor, partial curve, poor fit]	–	–
O=C(c1cccs1)N1C[C@@H]2C[C@H](C1)c1c(-c3ccc(Cl)cc3)ccc(=O)n1C2	–	inactive: -5.88% [at 174 µM]	–
CSc1ccc(-c2ccc(=O)n3c2[C@@H]2C[C@@H](CN(C(=O)Nc4cccc(F)c4)C2)C3)cc1	inconclusive: 50.1 µM [inhibitor, partial curve, poor fit]	–	–
O=[S+]1([O-])NC2(CCN(Cc3ccncc3)C2)CNc2ccccc21 (centres undefined)	–	inactive: -12.1%	–
Cn1cc(CN[C@@H]2C[C@H](CO)[C@@H](O)[C@H]2O)c2ccccc21	–	inactive: -26.1% [at 138 µM]	–
Cc1nc(-c2ccccc2)cc([C@H]2CN3CC[C@H]2C[C@@H]3CNS(=O)(=O)Cc2ccccc2)n1	active: 79.4 µM	–	–
c1ccc(CN2CCCC3(CC(c4ccccn4)=NO3)C2)nc1 (centres undefined)	–	inactive: -2.75%	–

SMILES	Potency	activity change, negative = cytotoxicity	outcome
O=C1CO[C@H]2CN(Cc3ccccn3)C[C@H]2N1	–	inactive: -23.7% [at 230 µM]	–
Cc1ncc2c(n1)C[C@@H]1CC[C@H]2N1S(=O)(=O)c1ccc2c(c1)C(C)(C)C(=O)N2	–	inactive: -3.96%	–
c1ccc(C2=NOC3(CCCN(Cc4cccnc4)C3)C2)nc1 (centres undefined)	–	inactive: -15.2%	–
N#Cc1ccc(C(=O)N2C[C@@H]3C[C@H](C2)c2c(-c4cccs4)ccc(=O)n2C3)cc1	–	inactive: -19.6% [at 174 µM]	–
CCCS(=O)(=O)NC[C@H]1C[C@@H]2CCN1C[C@@H]2c1cc(-c2ccccc2)nc(C)n1	inconclusive: 112 µM [inhibitor, partial curve, poor fit]	–	–
COc1ccc(OC)c(S(=O)(=O)NC[C@H]2C[C@@H]3CCN2C[C@@H]3c2cc(-c3cccs3)nn2C)c1	active: 79.4 µM	–	–
Cn1cccc1C(=O)N1[C@H]2CC[C@@H]1c1cnc(-c3ccc(F)cc3)nc1C2	inconclusive: 28.2 µM [inhibitor, partial curve, poor fit]	–	–
Cn1nc(C2CCCCC2)cc1[C@H]1CN2CC[C@H]1C[C@@H]2CNC(=O)NCc1ccccc1	inconclusive: 79.4 µM [inhibitor, partial curve, poor fit]	–	–
O=[S+]1([O-])NC2(CCN(Cc3ccncc3)C2)COc2ccncc21 (centres undefined)	–	–	inactive
CN1CCN(C(=O)Cc2c[nH]c3ncc(-c4ccc(F)c(Cl)c4)cc23)CC1	active: 28.2 µM	–	–
Cc1nc(-c2ccccc2Br)cc([C@H]2CN3CC[C@H]2C[C@@H]3CNC(=O)NC2CCCCC2)n1	inconclusive: 50.1 µM [inhibitor, partial curve, poor fit]	–	–
Cc1ccc(-c2ccccc2CN2CCN(C(=O)Cc3ccc(F)cc3)CC2)cc1Cl	inconclusive: 50.1 µM [inhibitor, partial curve, poor fit]	–	–
CCN1CCN(c2ccc(Cl)nn2)C(=O)C1	–	inactive: -6.1% [at 138 µM]	–
O=C(C1CCC1)N1[C@H]2CC[C@@H]1c1cnc(-c3ccc(F)cc3)nc1C2	–	inactive: -43.1%	–
CC(=O)c1ccc(NC(=O)NC[C@H]2C[C@@H]3CCN2C[C@@H]3CN(C)Cc2ccccc2)cc1	active: 89.1 µM	–	–
CC(=O)N1C2CCC1CN(C(C)C)C2	–	inactive: -16.5% [at 174 µM]	–
O=C(Cc1ccc(F)cc1)N1CCN(CCCn2nc3n(c2=O)CCCC3)CC1	–	inactive: -17.1%	–
CNc1nc(N2C[C@H]3CN(CCOC)C[C@@]3(C(=O)O)C2)ncc1F	–	inactive: -7.38%	–
O=C(Cc1ccc(Cl)nc1)N1CCN(CCCn2nc3n(c2=O)CCCC3)CC1	–	inactive: -14.9%	–
CCS(=O)(=O)N1CC(COC)C2(CCNCC2)C1 (centres undefined)	–	–	inactive
COc1cc2c(cc1OCc1ccccc1)N(C(=O)c1cnn(C)c1)CC21CCN(C)CC1	inconclusive: 70.8 µM [inhibitor, single point]	–	–
COc1cc2c(cc1CCc1ccccc1)N([S+](=O)([O-])c1cn(C)cn1)CC21CCN(C(C)=O)CC1	inconclusive: 11.2 µM [inhibitor, full curve, poor fit]	–	–
CN1CCNc2cc(Nc3ccc(F)cc3)ncc2C1	inconclusive: 89.1 µM [inhibitor, partial curve]	–	–
CC[C@H]1CN2CC[C@H]1C[C@@H]2CN(Cc1ccc(SC)cc1)Cc1ccc(SC)cc1	active: 10 µM	–	–
Cc1cccc(C(=O)N2[C@H]3CC[C@@H]2c2cnc(-c4ccccc4)nc2C3)c1	inconclusive: 44.7 µM [inhibitor, partial curve]	–	–
CC[C@H]1CN2CC[C@H]1C[C@@H]2CNC(=O)c1ccc2ccccc2c1	inconclusive: 100 µM [inhibitor, partial curve]	–	–
CCn1nccc1C(=O)N1[C@H]2CC[C@@H]1c1cnc(-c3ccc(F)cc3)nc1C2	inconclusive: 5.01 µM [inhibitor, full curve, poor fit]	–	–
